# Laboratory results as given in PubChem BioAssay (Tox21).
# The shares of active, inactive and inconclusive entries below differ from those in the screen. A potency beside an inconclusive call is a rough fit, not a confirmed value. Activity calls are given as the source filed them. Unless noted, calls come from the whole dose curve; as a rule, active = well fitted cell-killing curve with a large enough effect in the repeat runs; inconclusive = weak or mixed curves; inactive = no such curve, though single readings can be large or run the other way.
# Assay: qHTS assay for small molecule agonists of the antioxidant response element (ARE) signaling pathway (AID 743202; active = well fitted activation curve with a large enough effect in the signal ratio in the repeat runs, not every such curve was filed as active; inconclusive = weak or mixed curves, or effect the other way; inactive = no such curve, though single readings can be large or run the other way; the % refers to the signal ratio)
# Conditions: HepG2 ARE-bla reporter, beta-lactamase FRET, 16 h; activation: at 73.3 µM (top of the series) unless noted
# Outline: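 Quantitative high-throughput format in HepG2 cells bearing an integrated ARE-beta-lactamase reporter. Compound exposure lasted 16 h at 37 C, and fluorescence was read 2 h after adding LiveBLAzer B/G substrate at room temperature.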
# % is set by controls: 0 for no effect and ±100 for the full control effect; potency is the fitted concentration of half-maximal effect; tags give direction and shape of the fitted curve.
SMILES,activation,Potency
C=CS(=O)(=O)O,inactive: -0.992% [at 94.8 µM],–
O=C(O)CC(C(=O)O)C(CC(=O)O)C(=O)O (centres undefined),–,inactive
O=C(c1ccccc1)C(O)c1ccccc1 (centres undefined),inconclusive: -5.84%,–
c1ccc(OCc2ccc(CCCN3CCOCC3)cc2)cc1,–,"inconclusive: 11.9 µM [rising, partial curve]"
CC(C)CC(=O)CC(C)CC(C)C (centres undefined),inconclusive: 20.3%,–
CCC1=C(C)CN(C(=O)NCCc2ccc(S(=O)(=O)NC(=O)NC3CCC(C)CC3)cc2)C1=O (centres undefined),–,"inconclusive: 33.5 µM [rising, partial curve, poor fit]"
O=C(O)c1cc(C(=O)O)c(C(=O)O)cc1C(=O)O,–,inconclusive: 61.1 µM
O=C(Cl)c1cc(Cl)cc(Cl)c1,inconclusive: 17.3% [at 94.8 µM],–
O=C1CCCC(=O)O1,–,inconclusive: 48.6 µM
Cc1cn([C@H]2C=C[C@@H](CO)O2)c(=O)[nH]c1=O,–,inconclusive: 54.5 µM
CCCCC(C=O)CC (centres undefined),–,inactive
NCCNCCNCCN,–,inactive
COC(=O)/C=C/C(C)=C\C=C\C(C)=C\C=C\C=C(C)\C=C\C=C(C)\C=C\C(=O)O,–,"inconclusive: 9.69 µM [rising, partial curve]"
OC[C@H](Cc1cccc(O)c1)[C@H](CO)Cc1cccc(O)c1,inconclusive: 22.5% [at 94.8 µM],–
CSc1cnccn1,inconclusive: 26.8%,–
C1N2CN3CN1CN(C2)C3,inconclusive: -9.06%,–
N=C(N)c1ccc(OCCCOc2ccc(C(=N)N)cc2)cc1,–,"inconclusive: 5.31 µM [rising, full curve]"
CCCCCCOC(=O)CC,inactive: -7%,–
FC(F)(F)C(Cl)(Cl)Cl,inactive: -3.79%,–
O=[N+]([O-])c1ccc(NCCO)c(OCCO)c1,inactive: 0.4%,–

SMILES,activation,Potency
O=C(NS(=O)(=O)/C=C/c1cccs1)c1ccc(F)cc1Br,inconclusive: 16.7%,–
CCOC(=O)C(C)Oc1ccc(Oc2nc3ccc(Cl)cc3o2)cc1 (centres undefined),–,inconclusive: 19.3 µM
CN1C(=O)c2ccc([N+](=O)[O-])cc2C1=O,inconclusive: 14.8%,–
CCS(=O)(=O)c1ccc(OC)c(C(=O)OC)c1,inactive: 1.2%,–
Cc1nnc(C(=O)NC(C)(C)c2nc(C(=O)NCc3ccc(F)cc3)c(O)c(=O)n2C)o1,inconclusive: -19.7%,–
OCC(CO)N[C@H]1C[C@](O)(CO)[C@@H](O)[C@H](O)[C@H]1O,inconclusive: 20.6%,–
CCOC(=O)c1ccc(O)cc1,–,inactive
C/C(=N\O)[C@@H](C)NCC(C)(C)CN[C@H](C)/C(C)=N/O,inactive: -12.9%,–
CC(C)CC(=O)C1C(=O)c2ccccc2C1=O,–,"inconclusive: 17.2 µM [falling, partial curve, poor fit]"
O=C1OCCO1,inconclusive: 16.1% [at 94.8 µM],–
c1ccc(Oc2ccccc2)cc1,–,inactive
O=C(Nc1ccc2c(c1)Cc1ccccc1-2)C(F)(F)F,–,"inconclusive: 68.6 µM [rising, single point]"
O=C(CCN1CCN2CCCC2C1)N1c2ccccc2Sc2ccc(Cl)cc21 (centres undefined),–,"inconclusive: 13 µM [rising, partial curve, poor fit]"
Nc1ccc(-c2ccc(F)cc2)cc1,inconclusive: 11.2%,–
CCCC(=O)c1ccccc1,inactive: 1.02%,–
OCCOCCOCCO,–,inactive
CCCS(=O)c1ccc2nc(NC(=O)OC)[nH]c2c1 (centres undefined),–,"inconclusive: 13.3 µM [falling, partial curve, poor fit]"
Cc1c(C)n(CCN(C)C)c2ccc(C(=O)OCCN(C)C)cc12,inconclusive: -10.9%,–
CCCCCCc1ccc(-c2ccc(C#N)cc2)cc1,inactive: -2.12%,–

# Assay: qHTS assay to identify small molecule antagonists of the peroxisome proliferator-activated receptor delta (PPARd) signaling pathway - cell viability counter screen (AID 743213); note: nearly all actives have a fitted effect of over 50% in size
# Conditions: PPARd-bla HEK293H viability, CellTiter-Glo luminescence, 17 h; viability change, negative = cytotoxic: at 62 µM (top of the series) unless noted
# Outline: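 Agonist-stimulated (L165041, 300 nM final) HEK293H PPARd UAS-bla cells are exposed to compounds for 17 h at 37 C, and ATP-based luminescence (CellTiter-Glo) from the same wells reports cytotoxicity.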
SMILES,"viability change, negative = cytotoxic",Potency
c1ccc(OCc2ccc(CCCN3CCOCC3)cc2)cc1,inactive: 7.58%,–
O=C(O)c1cc(C(=O)O)c(C(=O)O)cc1C(=O)O,–,"inconclusive: 12.3 µM [cytotoxic, single point]"
O=C1CCCC(=O)O1,inconclusive: -30.1% [cytotoxic],–
NCCNCCNCCN,–,"inconclusive: 5.31 µM [cytotoxic, full curve, poor fit]"
OC[C@H](Cc1cccc(O)c1)[C@H](CO)Cc1cccc(O)c1,inactive: -6.78% [at 80.4 µM],–
O=[N+]([O-])c1ccc(NCCO)c(OCCO)c1,inactive: 6.35%,–
CCOC(=O)C(C)Oc1ccc(Oc2nc3ccc(Cl)cc3o2)cc1 (centres undefined),inactive: 18.2%,–
CN1C(=O)c2ccc([N+](=O)[O-])cc2C1=O,inactive: 24%,–
Cc1nnc(C(=O)NC(C)(C)c2nc(C(=O)NCc3ccc(F)cc3)c(O)c(=O)n2C)o1,–,"inconclusive: 1.19 µM [cytotoxic, full curve, poor fit]"
OCC(CO)N[C@H]1C[C@](O)(CO)[C@@H](O)[C@H](O)[C@H]1O,inactive: 7.42%,–
CC(C)CC(=O)C1C(=O)c2ccccc2C1=O,inactive: 9.27%,–
O=C1OCCO1,–,"inconclusive: 0.0291 µM [cytotoxic, full curve, poor fit]"
c1ccc(Oc2ccccc2)cc1,–,"inconclusive: 0.008 µM [cytotoxic, full curve, poor fit]"
O=C(Nc1ccc2c(c1)Cc1ccccc1-2)C(F)(F)F,inactive: -12.4%,–
O=C(CCN1CCN2CCCC2C1)N1c2ccccc2Sc2ccc(Cl)cc21 (centres undefined),inconclusive: -37.9% [cytotoxic] [at 28.9 µM],–
Nc1ccc(-c2ccc(F)cc2)cc1,inactive: 16.2%,–
CCCC(=O)c1ccccc1,–,"inconclusive: 12.3 µM [cytotoxic, single point]"
OCCOCCOCCO,–,"inconclusive: 2.27 µM [cytotoxic, single point]"
Cc1c(C)n(CCN(C)C)c2ccc(C(=O)OCCN(C)C)cc12,–,"inconclusive: 11.9 µM [cytotoxic, single point]"
CCCCCCc1ccc(-c2ccc(C#N)cc2)cc1,inactive: 29.4%,–
